Experimental data: a collection of fitness landscapes (doi:10.1126/science.1257360)
The list shows a part of the results.

B1: PhoQ; a variant is named by its letters at X, in order, P23837 (parent)
chain: MKKLLRLFFPLSLRVRFLLATAAVVLVLSLAYGMVALIGYSVSFDKTTFRLLRGESNLFYTLAKWENNKLHVELPENIDKQSPTMTLIYDENGQLLWAQRDVPWLMKMIQPDWLKSNGFHEIEADVNDTSLLLSGDHSIQQQLQEVREDDDDAEMTHSVAVNVYPATSRMPKLTIVVVDTIPVELKSSYMVWSWFIYVLSANLLLVIPLLWVAAWWSLRPIEALAKEVRELEEHNRELLNPATTRELTSLVRNLNRLLKSERERYDKYRTTLTDLTHSLKTPLXXLQXXLRSLRSEKMSVSDAEPVMLEQISRISQQIGYYLHRASMRGGTLLSRELHPVAPLLDNLTSALNKVYQRKGVNISLDISPEISFVGEQNDFVEVMGNVLDNACKYCLEFVEISARQTDEHLYIVVEDDGPGIPLSKREVIFDRGQRVDTLRPGQGVGLAVAREITEQYEGKIVAGESMLGGARMEVIFGRQHSAPKDE

Variants of: B1
Assay: enrichment ratio after two sorts for PhoP signalling (ratio (wild type AVST 3.29)); higher = more functional
Conditions: with PhoP (E. coli)

Variant | enrichment ratio
RAPI | ≤ 0.25
TIWL | ≤ 0.25
WDPA | ≤ 0.25
RQAW | ≤ 0.25
GFQR | ≤ 0.25
RTWI | ≤ 0.25
TAHN | 3.41
SVRL | 0.314
GRHT | ≤ 0.25
KDSG | ≤ 0.25
FCDY | ≤ 0.25
GNRN | ≤ 0.25
DVQN | ≤ 0.25
LRRM | ≤ 0.25
QFPH | ≤ 0.25
HEAG | ≤ 0.25
MGLT | 5.67
IGIE | ≤ 0.25
DKTS | ≤ 0.25
GYSA | ≤ 0.25
PMEY | ≤ 0.25
KFYW | ≤ 0.25
GLWN | ≤ 0.25
MAHQ | ≤ 0.25

Variant | enrichment ratio
MQRA | ≤ 0.25
ADYV | ≤ 0.25
NFWP | ≤ 0.25
RNNA | ≤ 0.25
TDER | ≤ 0.25
QFGF | ≤ 0.25
LQLT | ≤ 0.25
RQIG | ≤ 0.25
NYCM | ≤ 0.25
PKFY | ≤ 0.25
YRNP | ≤ 0.25
TPDY | ≤ 0.25
HEQF | ≤ 0.25
ALFH | ≤ 0.25
PCNA | ≤ 0.25
AVIE | ≤ 0.25
NMKW | ≤ 0.25
PAAH | ≤ 0.25
VCSF | ≤ 0.25
NEGP | ≤ 0.25
LLNY | ≤ 0.25
HNPC | ≤ 0.25
GFDC | ≤ 0.25
LCCN | ≤ 0.25

Variant | enrichment ratio
IESW | ≤ 0.25
RPAS | 0.311
TAAA | 0.499
IVWF | ≤ 0.25
DTDV | ≤ 0.25
YRFH | ≤ 0.25
ESIN | ≤ 0.25
QDGL | ≤ 0.25
PKCV | ≤ 0.25
MKGY | ≤ 0.25
EEQL | ≤ 0.25
FRSM | ≤ 0.25
GGEV | ≤ 0.25
KYNN | ≤ 0.25
QMTY | ≤ 0.25
GSFF | ≤ 0.25
RSSD | ≤ 0.25
GYNF | ≤ 0.25
THCK | ≤ 0.25
SLEN | ≤ 0.25
HTVR | ≤ 0.25
SGCH | 8.61
WFPM | ≤ 0.25
PELF | ≤ 0.25

Variant | enrichment ratio
ASYS | ≤ 0.25
DIIA | ≤ 0.25
PDVK | ≤ 0.25
DYVV | ≤ 0.25
LDWG | ≤ 0.25
TWIF | ≤ 0.25
HLPL | ≤ 0.25
VLVQ | ≤ 0.25
EHWT | ≤ 0.25
HTFD | ≤ 0.25
YQGF | ≤ 0.25
YCFY | ≤ 0.25
PCDA | ≤ 0.25
IRHR | ≤ 0.25
NLLW | ≤ 0.25
HMDV | ≤ 0.25
VVQF | ≤ 0.25
WCLF | ≤ 0.25
PQFW | ≤ 0.25
YMGP | ≤ 0.25
QNLT | ≤ 0.25
LLTS | ≤ 0.25
NTLV | ≤ 0.25
NERP | ≤ 0.25

Variant | enrichment ratio
VPTG | ≤ 0.25
HFPL | ≤ 0.25
HGQY | ≤ 0.25
DFIT | ≤ 0.25
RRID | ≤ 0.25
GTCL | 9.42
QESP | ≤ 0.25
DFDC | ≤ 0.25
NRPY | ≤ 0.25
EEVL | ≤ 0.25
TWAN | ≤ 0.25
LNYG | ≤ 0.25
LGAH | ≤ 0.25
FKSP | ≤ 0.25
GEQA | ≤ 0.25
FFCY | ≤ 0.25
LHQV | ≤ 0.25
FGHC | ≤ 0.25
KTDG | ≤ 0.25
VVGQ | ≤ 0.25
FLAN | ≤ 0.25
VQCF | ≤ 0.25
DMIW | ≤ 0.25
HKDH | ≤ 0.25

Variant | enrichment ratio
LPFC | ≤ 0.25
TMGY | ≤ 0.25
MMPG | ≤ 0.25
KKFF | ≤ 0.25
AHDS | ≤ 0.25
VMQV | ≤ 0.25
ENHV | ≤ 0.25
MKRA | ≤ 0.25
EDTS | ≤ 0.25
THVK | ≤ 0.25
SIHQ | ≤ 0.25
GSMG | 4.19
ADGN | ≤ 0.25
PNNF | ≤ 0.25
ATYG | ≤ 0.25
HIMV | ≤ 0.25
KPDD | ≤ 0.25
PRLH | ≤ 0.25
VWDN | ≤ 0.25
WFPT | ≤ 0.25
IAHQ | ≤ 0.25
KGSL | ≤ 0.25
YFFY | ≤ 0.25
WAFT | ≤ 0.25

Variant | enrichment ratio
KAWQ | ≤ 0.25
YSAG | ≤ 0.25
LDIE | ≤ 0.25
KRFI | ≤ 0.25
ELRW | ≤ 0.25
IIHK | ≤ 0.25
HRIP | ≤ 0.25
RFIR | ≤ 0.25
QLIL | ≤ 0.25
WQLV | ≤ 0.25
GFKI | ≤ 0.25
QTLP | ≤ 0.25
NKES | ≤ 0.25
IFKW | ≤ 0.25
NKLY | ≤ 0.25
IDMW | ≤ 0.25
TEWL | 21.7
CFVR | ≤ 0.25
RWSY | ≤ 0.25
TDEM | ≤ 0.25
WCRN | ≤ 0.25
LQFP | ≤ 0.25
THIG | ≤ 0.25
EWIS | ≤ 0.25

Variant | enrichment ratio
HDPE | ≤ 0.25
WVFF | ≤ 0.25
EWNS | ≤ 0.25
WGWM | ≤ 0.25
KCNK | ≤ 0.25
DRWD | ≤ 0.25
MHNN | ≤ 0.25
HYFK | ≤ 0.25
FDCF | ≤ 0.25
HLRC | ≤ 0.25
LHEQ | ≤ 0.25
RGIT | ≤ 0.25
YCGS | 0.294
NSCI | ≤ 0.25
QKCQ | ≤ 0.25
MVVY | ≤ 0.25
DGRD | ≤ 0.25
VFMI | ≤ 0.25
PAPI | ≤ 0.25
HYVN | ≤ 0.25
RIPL | ≤ 0.25
HNFH | ≤ 0.25
WKQR | ≤ 0.25
IVGF | ≤ 0.25

Variant | enrichment ratio
HFGY | ≤ 0.25
ENTR | ≤ 0.25
YHWR | ≤ 0.25
EMMS | ≤ 0.25
IDPE | ≤ 0.25
ATYS | 0.76
AMSE | 4.51
KLQK | ≤ 0.25
ETCE | ≤ 0.25
DHVN | ≤ 0.25
RTHQ | ≤ 0.25
TVIF | ≤ 0.25
DQCL | ≤ 0.25
TKIK | ≤ 0.25
GHDM | ≤ 0.25
KALL | ≤ 0.25
EPYK | ≤ 0.25
VKPD | ≤ 0.25
VIVT | ≤ 0.25
FYDS | 0.288
DGMA | ≤ 0.25
GACM | 12.2
PSAR | ≤ 0.25
FGWL | ≤ 0.25

Variant | enrichment ratio
EGKS | ≤ 0.25
VSTH | ≤ 0.25
AKGH | ≤ 0.25
KKTA | ≤ 0.25
MIPQ | ≤ 0.25
YQIK | ≤ 0.25
YMIP | ≤ 0.25
EYHI | ≤ 0.25
DPAV | ≤ 0.25
SLNQ | ≤ 0.25
YYDQ | ≤ 0.25
HQDL | ≤ 0.25
WAMK | 1.98
YALF | 3.8
WDSS | ≤ 0.25
DNMY | ≤ 0.25
NFTE | ≤ 0.25
HPRP | ≤ 0.25
TSFW | ≤ 0.25
VPNS | ≤ 0.25
ANKN | ≤ 0.25
TGVC | 16.8
ERRR | ≤ 0.25
RSRY | ≤ 0.25

Variant | enrichment ratio
LQED | ≤ 0.25
LVFQ | ≤ 0.25
IKNY | ≤ 0.25
FNIF | ≤ 0.25
GLND | ≤ 0.25
QVHL | ≤ 0.25
SLGE | 1.74
KQWG | ≤ 0.25
MKCS | ≤ 0.25
QFYS | ≤ 0.25
VHQY | ≤ 0.25
AYDH | ≤ 0.25
IGPI | ≤ 0.25
HIVK | ≤ 0.25
SHWQ | ≤ 0.25
MNSQ | ≤ 0.25
ARDV | ≤ 0.25
KGVP | ≤ 0.25
WFEG | ≤ 0.25
DNVP | ≤ 0.25
YCTQ | 0.38
SFIK | ≤ 0.25
LMTW | ≤ 0.25
SDQD | ≤ 0.25

Variant | enrichment ratio
RLTN | ≤ 0.25
FMDI | ≤ 0.25
PKGI | ≤ 0.25
VQGM | ≤ 0.25
SPNW | ≤ 0.25
KHYG | ≤ 0.25
DKFD | ≤ 0.25
VHFM | ≤ 0.25
RQHF | ≤ 0.25
TCMA | 15.5
GLYQ | ≤ 0.25
LRPL | ≤ 0.25
NMRF | ≤ 0.25
GNDD | ≤ 0.25
DCIC | ≤ 0.25
FINN | ≤ 0.25
GWCE | ≤ 0.25
RMKA | ≤ 0.25
LQNG | ≤ 0.25
WNPW | ≤ 0.25
KSHP | ≤ 0.25
WQTW | ≤ 0.25
ILDS | ≤ 0.25
FDAQ | ≤ 0.25

Variant | enrichment ratio
NKWS | ≤ 0.25
YKWH | ≤ 0.25
HDPT | ≤ 0.25
NGQY | ≤ 0.25
YLMY | ≤ 0.25
YYMY | ≤ 0.25
SVRQ | ≤ 0.25
TRGR | ≤ 0.25
YENY | ≤ 0.25
RGSQ | ≤ 0.25
GLLD | ≤ 0.25
WRCH | ≤ 0.25
SSKK | ≤ 0.25
PDHH | ≤ 0.25
VKSI | ≤ 0.25
VIRM | ≤ 0.25
LHFN | ≤ 0.25
TRDS | ≤ 0.25
